# Data taken from patent US20260286305A1, “TREATMENT OF LEUKEMIA WITH ENGINEERED IMMUNE CHECKPOINT INACTIVATED CAR-NK CELLS OR CAR T-CELLS” (ALBERT-LUDWIGS-UNIVERSITÄT FREIBURG KÖRPERSCHAFT DES …, priority 2023, published 2026).
# Assays:
# [1] = system: CLEC12A expression in OCI-AML2 cells; assay: Flow cytometry-based CLEC12A expression of OCI-AML2 cells cultured with AZA; format: cell-based, human; conditions: exposure to AZA for 4 or 8 days; 1 μM AZA in culture
# Description: Based on these findings, in order to overcome the disadvantages of using CD123 as a target as explained herein, the inventors defined CLEC12A, CD33, CD123, B7-H6, CD19 or BCMA, and in particular CLEC12A as highly promising target antigen due to its expression on more than 90% of leukemic blasts from AML patients as well as on OCI-AML2 and MOLM-13 cells (FIG. 8).
# (A) Flow cytometry-based CLEC12A-expression analysis of different AML cell lines. (B) AZA-induced change of CLEC12A expression in OCI-AML2 cells. The fold change compares the CLE12A expression in the absence (day 0) versus presence (for 1, 4 or 8 days) of 1 μM azacytidine (AZA) in culture.
# MOLM-13 leukemia cells = assay: MOLM-13 xenografted mouse model, CD123-CAR-T cells with AZA; conditions: MOLM-13 engrafted mice, BLI and survival (FIG. 7)
# [2] = system: CD123 expression on leukemia cells; conditions: upon AZA treatment; cited from earlier work
structure (smiles),measurement,setting,value
"Nc1ncn([C@@H]2O[C@H](CO)[C@@H](O)[C@H]2O)c(=O)n1 [AZA, azacitidine]",CLEC12A expression,[1],significant CLEC12A upregulation
same,anti-leukemic effect of CD123-CAR-T cells,MOLM-13 leukemia cells,enhances the anti-leukemic effect
same,CD123 expression on leukemia cells,[2],increases
